Source: PMC4336329 (PLoS ONE, 2015)
Hit rate of the full screen: of about 310,000 compounds, about 2,200 (0.71%) showed an effect of 50% or more. Effects have a minus sign here. This is one part of the list.

These compounds were tested against human ether-à-go-go-related gene (hERG) potassium channel (human, UniProt Q12809) (assay: primary screen, population patch clamp on CHO cells stably expressing hERG).
Chain of human ether-à-go-go-related gene (hERG) potassium channel (Q12809 whole entry, looked up): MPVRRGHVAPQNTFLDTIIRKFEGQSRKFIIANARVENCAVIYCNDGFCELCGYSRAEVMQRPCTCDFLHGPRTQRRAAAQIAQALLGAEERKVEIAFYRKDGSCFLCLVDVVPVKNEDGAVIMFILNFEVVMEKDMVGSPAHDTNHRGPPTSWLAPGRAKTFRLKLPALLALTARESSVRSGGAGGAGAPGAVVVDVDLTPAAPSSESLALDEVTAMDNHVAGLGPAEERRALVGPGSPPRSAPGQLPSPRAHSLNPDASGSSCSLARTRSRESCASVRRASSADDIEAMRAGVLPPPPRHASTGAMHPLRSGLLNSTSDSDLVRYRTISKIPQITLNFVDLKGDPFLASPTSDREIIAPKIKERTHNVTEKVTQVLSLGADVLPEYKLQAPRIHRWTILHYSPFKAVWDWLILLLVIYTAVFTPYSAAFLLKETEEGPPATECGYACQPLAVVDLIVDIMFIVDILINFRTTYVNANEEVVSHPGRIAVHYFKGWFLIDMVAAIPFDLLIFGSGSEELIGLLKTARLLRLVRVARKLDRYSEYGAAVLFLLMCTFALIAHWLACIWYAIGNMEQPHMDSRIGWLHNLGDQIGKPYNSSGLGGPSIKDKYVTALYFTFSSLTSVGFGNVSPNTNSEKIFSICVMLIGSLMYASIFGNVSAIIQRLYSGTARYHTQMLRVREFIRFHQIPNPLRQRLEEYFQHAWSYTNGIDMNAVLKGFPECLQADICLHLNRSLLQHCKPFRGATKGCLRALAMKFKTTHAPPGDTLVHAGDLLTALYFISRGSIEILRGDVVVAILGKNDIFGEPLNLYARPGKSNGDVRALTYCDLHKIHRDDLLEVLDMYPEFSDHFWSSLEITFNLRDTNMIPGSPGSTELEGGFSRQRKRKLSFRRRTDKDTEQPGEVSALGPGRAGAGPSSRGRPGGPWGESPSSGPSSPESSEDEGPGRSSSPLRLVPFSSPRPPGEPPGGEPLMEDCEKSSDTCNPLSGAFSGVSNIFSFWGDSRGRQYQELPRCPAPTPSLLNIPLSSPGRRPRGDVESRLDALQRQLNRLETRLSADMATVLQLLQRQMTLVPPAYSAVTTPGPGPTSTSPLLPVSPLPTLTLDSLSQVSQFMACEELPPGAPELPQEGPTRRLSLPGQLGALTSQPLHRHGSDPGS

SMILES | hERG current change (%, negative = inhibition) at 1uM
CC(=O)Nc1ccccc1C | 11.4%
Cc1cccc(N(C)C(=O)c2cc(S(=O)(=O)N3CCc4ccccc43)cn2C)c1 | 3%
O=C(c1ccco1)N1CCN(c2ncnc3scc(-c4cccs4)c23)CC1 | -36.9%
COc1cc2[nH]c(=O)n(CCC(=O)NCCC(C)C)c(=O)c2cc1OC | 7.96%
C=CCn1c(Cc2ccc(OC)cc2)nnc1SCC(N)=O | 0.195%
CCCN(CCC)c1nc(N(CCC)CCC)[nH]c(=O)n1 | 9.89%
COc1ccc(S(=O)(=O)N2CCCC2CNC(=O)C(=O)NCc2ccc(C)cc2)cc1 (centres unmarked) | -2.03%
Cc1cc(CNC(=O)c2cc(Br)ccc2Cl)nn1C | 1.23%
COc1ccccc1P(=O)(c1ccccc1)c1ccccc1 | 16.5%
CC1(C)[C@H]2CC=C(CN3CCC(N4CCC(C(=O)N5CCCC5)CC4)CC3)[C@@H]1C2 | 1.61%
O=C(NCCCN1CCOCC1)C1Cc2c(ccc3ccccc23)O1 (centres unmarked) | 10.2%
COc1cc(Cl)c(CN2CCCC(CO)(Cc3cccc(Cl)c3)C2)cc1OC (centres unmarked) | 13.8%
Cc1nc2c([N+](=O)[O-])c(C)c(C)cc2[nH]1 | 7.78%
COc1cc(CNCc2ccc3c(c2)OCO3)c([N+](=O)[O-])cc1OC | 11.7%
Cc1[nH]c2ccccc2c1C(=O)C(=O)NCC1CCCO1 (centres unmarked) | 9.3%
CN(CC(=O)NCc1ccc(F)cc1)S(=O)(=O)c1cccc2nsnc12 | -7.83%
CCOC(=O)c1c(C)[nH]c(C=C2C(=O)CCCC2=O)c1O | 3.9%
COc1ccc(NC(=O)CSc2nnnn2-c2ccccc2OC)c(OC)c1 | 0.645%
CCOC(=O)N1CCN(C(=O)c2cnn3ccccc23)CC1 | 8.16%
COc1ccccc1NS(=O)(=O)c1ccc2oc(=S)[nH]c2c1 | -3.61%
CC(C)c1ccc(-c2cc(C(=O)N3CCOCC3)c3cc(Br)ccc3n2)cc1 | 1.41%
CC(C)OC(=O)CSc1nnc(-c2cnccn2)n1-c1ccccc1 | 13.9%
COc1ccc(N=N/C(C(C)=O)=C(/C)O)cc1 | 9.11%

SMILES | hERG current change (%, negative = inhibition) at 1uM
CC(C)[C@H](NC(=O)[C@@H]1Cc2ccccc2CN1)C(=O)Nc1ccc2c(c1)OCO2 | 7.24%
CN(CC(=O)Nc1ccc(N2CCOCC2)cc1)C(=O)C1CCCC1 | 19.2%
CCCOc1cccc(-c2cc(C(=O)NNC(=S)NCC)c3ccccc3n2)c1 | 4.3%
O=C1NC(=O)N(CCC2=CCCCC2)C(=O)/C1=C\c1cccs1 | 10.3%
Cc1c(C(=O)NN)nc2ccccn12 | 5.61%
Cl.O=C1CN=C(Nc2ccccc2)N1Cc1cccs1 | 7.82%
Cc1ccc(OCCOCCN2CCN(C)CC2)c([N+](=O)[O-])c1 | 1.29%
Cc1cc(NC(=O)CSc2nc3c([nH]c4ccccc43)c(=O)n2-c2ccccc2F)no1 | 11.7%
Cc1cc(C)n2nc(C(=O)N/N=C/c3cccs3)nc2n1 | 8.38%
CCC1CCCCN1C(=O)Cn1c(C(=O)OC)cc2sc(Cl)cc21 (centres unmarked) | 12%
Cc1ccccc1CN(C)CC(=O)Nc1ccccc1-c1ccccc1 | -9.53%
O=C(CN1C(=O)NC2(CCCc3ccccc32)C1=O)NCC(F)(F)F (centres unmarked) | 15.5%
O=C(Nc1cc(Cl)ccc1Cl)C1CCCO1 (centres unmarked) | 9.74%
CC1Cc2nc(SCC(=O)Nc3nccs3)n(C)c(=O)c2S1 (centres unmarked) | 10.5%
COC(=O)c1ccc(N2NC(=O)/C(=C/c3cc(OC)c(O)c(OC)c3)C2=O)cc1 | 5.64%
Cc1onc(-c2ccccc2)c1-c1csc(N/N=C/c2ccccc2Cl)n1 | 9.41%
N#Cc1ccc(C(=O)Nc2cccc(NC(=O)c3ccco3)c2)c(F)c1 | 3.1%
Cc1cc(C)c(S(=O)(=O)N2CCN(C(=O)c3cc4ccccc4oc3=O)CC2)c(C)c1 | -0.0534%
CCCn1ncc(CN2CCC(CO)(Cc3ccc(OC)cc3)CC2)c1C | -14.7%
Cc1ccc(CNc2ncnc3c2cnn3-c2ccccc2)cc1 | 7.4%
Cc1cc(C)nc(NS(=O)(=O)c2ccc(Br)cc2)n1 | 21.2%
CC(C)NC(=O)CCCOc1ccc(Cl)cc1Cl | -1.26%
Cc1cccc(NC(=O)CSCC(=O)Nc2nnc(C3CC3)s2)c1 | 8.77%

SMILES | hERG current change (%, negative = inhibition) at 1uM
Cc1c(Cl)cccc1NC(=O)N1CCN(C(=O)c2ccco2)CC1 | 15.5%
O=C(c1ccccc1)c1ccc(Sc2ccc([N+](=O)[O-])cc2)cc1 | 7.89%
CC(C)CCNc1nc(-c2ccco2)c2c(c1C#N)CCCC2 | 14.4%
Cc1ccc(S(=O)(=O)N(CC(=O)N2CCOCC2)c2ccccc2F)cc1 | 10.3%
O=C(Nc1ccc2c(c1)nc1n2CCN(Cc2ccccc2)C1)c1cccs1 | -9.79%
O=C(c1cccc([N+](=O)[O-])c1)N1CCN(Cc2ccccc2)CC1 | 8.33%
COc1ccc(/C=C/C(=O)c2sc(-c3ccccc3)nc2C)cc1 | 0.695%
COc1cc(-c2ccc3oc(-c4ccsc4)c(C#CC4(O)CCCCC4)c3c2)cc(OC)c1OC | 13.2%
CC12CCC(=O)N1C(C(=O)Nc1cccc(F)c1)CS2 (centres unmarked) | 5.02%
COc1cc(OC)nc(NC(=O)NS(=O)(=O)c2ccc(F)cc2)n1 | 0.362%
COc1cc2c(cc1NC(=O)CC1SC(N3CCCC3)=NC1=O)oc1ccccc12 (centres unmarked) | 6.04%
CCOC(=O)c1c(C)nc2c(c1-c1ccc(OC)c(OC)c1)C(=O)c1ccccc1-2 | -4.73%
CCCCN(C(=O)CSc1nnnn1-c1ccccc1OC)C1CCS(=O)(=O)C1 (centres unmarked) | 6.19%
N#CC1=C(N)OC2=C(CC/C2=C\c2ccc(F)cc2)C1c1ccc(F)cc1 (centres unmarked) | 5.51%
COc1ccc(S(=O)(=O)N2CCOCC2)cc1NC(=O)CN1CCCC1 | 16.2%
Oc1ccccc1N=Cc1ccc[nH]1 | 5.56%
COc1ccc(-c2noc(CCC(=O)NCc3cccnc3)n2)cc1 | 8.3%
O=c1c(Cc2c(F)cccc2Cl)c(O)ccn1C1CC1 | 1.69%
COC(=O)CN(C(=S)Nc1ccc(Cl)cc1)C1CC(=O)N(c2ccc(OC)cc2)C1=O (centres unmarked) | 5.34%
CCN(CC)S(=O)(=O)c1ccc2nc(COC(=O)c3n[nH]c4ccccc34)[nH]c2c1 | 11.4%
COc1ccc(NC(=S)NCCC(c2ccccc2)c2ccccc2)c(OC)c1 | 2.74%
Cc1ccc(Cn2c(CCCO)nc3ccccc32)cc1 | 7.83%
CCN(CC(=O)Nc1ccc2c(c1)OCCO2)C(=O)c1ccc(C)c(S(=O)(=O)N2CCOCC2)c1 | 16.8%

SMILES | hERG current change (%, negative = inhibition) at 1uM
Oc1ccccc1C1=NN(c2ccccc2)C(c2ccccc2)C1 (centres unmarked) | 8.11%
COc1cc(OC)cc(C(=O)Nn2cc(C(=O)N3CCN(C)CC3)c3ccccc3c2=O)c1 | 5.06%
CC(C)(C)NC(=O)C(c1ccncc1)N(Cc1cccs1)C(=O)c1csnn1 (centres unmarked) | 1.82%
Cc1nn(Cc2ccc(C(=O)N3N=C(C(F)F)CC3(O)C(F)F)cc2)c(C)c1[N+](=O)[O-] (centres unmarked) | -27.7%
CCOC(=O)c1c(C)n(Cc2ccco2)c2c1cc(O)c1ccccc12 | 2.59%
CN(C)CC(c1ccccc1)c1ccccc1.Cl | 8.57%
CN(C(=O)c1cc(S(=O)(=O)N2CCCCC2)c[nH]1)C1CCCCC1 | 9.71%
CCC(=O)NN1CCN(c2ccncc2S(=O)(=O)N2CCCCC2)CC1 | 12.7%
O=C(CSc1nccn(-c2ccc(Br)cc2)c1=O)NCc1ccccc1 | 10.6%
CCC(=O)Nc1ccc2c(c1)nc1n2CCN(C2CCCCC2)C1 | 2.53%
Cc1ccccc1-n1c(-c2ccc(Br)o2)n[nH]c1=S | 12.8%
CCOC(=O)C1=C(c2ccccc2)NC(=O)NC1c1ccc(OC)c(OC)c1 (centres unmarked) | 18.6%
CCc1ccc(NC(=O)NCc2ccc3c(c2)OCO3)cc1 | 9.52%
COc1cc(NS(=O)(=O)c2ccc(NC(=O)/C=C/C(=O)O)cc2)nc(OC)n1 | 5.24%
COc1ccc(N2CCN(C(CNS(=O)(=O)c3ccccc3)c3ccccc3)CC2)cc1 (centres unmarked) | 5.21%
Cc1ccccc1N1C(=O)CC(=O)N(c2ccccc2C)C1=O | 12%
O=C(O)COc1ccccc1/C=C1\SC(=Nc2ccc(F)cc2)N(c2ccc(F)cc2)C1=O | 1.58%
O=C(Nc1ccccc1C(=O)O)c1cccc(NC(=O)c2ccccc2Br)c1 | 6.41%
Cc1nn(-c2ccccc2)c(C)c1CN(C)C(=O)c1ccc(S(=O)(=O)NCc2ccco2)cc1 | 7.15%
Cc1ccc(OCC(=O)N/N=C/c2cccn2C)cc1 | 7%
